Data on 80 compounds can be found in the supplement of paper PMC10670038.

Where a name gives a salt, the structure may show the parent alone. ± gives the standard deviation of the averaged measurements. Whole data set: some 2,000 compounds, median “relative cell viability vs DMSO, compound + 0.2 uM CuET” near 1, cut for the lowest 2% near 0.25. The list shows a part of the results.

For this assay, the system named is TE10. The experiment in a line: relative cell viability vs DMSO, compound + 0.2 uM CuET (fraction); TE10 is an esophageal squamous carcinoma line; higher = less cytotoxic. The following applies: 2 µM; co-treatment: CuET (bis(diethyldithiocarbamate)copper) 0.2 uM; 48 h. On the procedure: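 TE10 ESCC cells (1,000/well, 384-well plates) were treated with Selleck bioactive library compounds at 2 uM combined with 0.2 uM CuET (copper diethyldithiocarbamate) for 48 h. Viability was read by CellTiter-Glo and expressed relative to DMSO wells. Two technical replicates (A, B).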
Regarding `C=CCn1c(=O)c2cnc(Nc3ccc(N4CCN(C)CC4)cc3)nc2n1-c1cccc(C(C)(C)O)n1`, the relative cell viability is 0.559 ± 0.038.

Regarding `c1cn2cc(-c3ccc4cn[nH]c4c3)nc(Nc3ccc(N4CCOCC4)cc3)c2n1`, the relative cell viability came to 0.346 ± 0.11.

For `O=C1CCC(N2C(=O)c3ccccc3C2=O)C(=O)N1` (stereo not given) [Thalidomide], the relative cell viability worked out at 1.14 ± 0.068.

For the compound `CCCCCCCCCCCC1=C(O)C(=O)C=C(O)C1=O` [Embelin], the relative cell viability was found to be 0.8707 ± 0.0031.

`COc1c2ccoc2cc2oc(=O)ccc12` [Bergapten]: the relative cell viability came to 1.12 ± 0.038.

On to `O=C1CCc2ccc(OCCCCN3CCN(c4cccc(Cl)c4Cl)CC3)cc2N1` [Aripiprazole], for which the relative cell viability worked out at 1.02 ± 0.04.

As to `Cc1nn(C)c2c1C(c1ccc(C(F)(F)F)cc1)C(C#N)=C(N)O2` (stereo not given), the relative cell viability was 1.1 ± 0.12.

As to `Cc1ccccc1C(OCCN(C)C)c1ccccc1` (stereo not given) [Orphenadrine Citrate], the relative cell viability was determined as 1.12 ± 0.056.

For `CNCc1cc(-c2ccccc2F)n(S(=O)(=O)c2cccnc2)c1`, the relative cell viability was determined as 1.19 ± 0.077.

Consider `Cc1cc(-c2ccc(CC(=O)Nc3ccc(-c4cccnc4)cc3)cc2)ccn1`, for which the relative cell viability is 1 ± 0.038.

Turning to `COc1ccc(C2CC(c3ccccc3)=NN2c2ccc(S(N)(=O)=O)cc2)cc1` (stereo not given), the relative cell viability came out at 1.07 ± 0.081.

Consider `Cc1cc(Nc2cc(N3CCN(C)CC3)nc(/C=C/c3ccccc3)n2)n[nH]1`, for which the relative cell viability is 0.867 ± 0.015.

For the compound `Cc1cc(Nc2cc(N3CCN(C)CC3)nc(/C=C/c3ccccc3)n2)n[nH]1` [ENMD-2076 L-(+)-Tartaric acid], the relative cell viability came out at 0.9018 ± 0.0077.

For `COCCOc1ccc2c(c1)ncn2-c1ccc2cccc(N3CCC(N)CC3)c2n1`, the relative cell viability came out at 0.742 ± 0.079.

With `Cc1nc(C#Cc2ccnc(Cl)c2)c(C)n1-c1ccc(OC(F)(F)F)cc1`, the relative cell viability amounted to 1.15 ± 0.14.

In the case of `COC(=O)C1=C(C)NC(C)=C(C(=O)OCCN(C)Cc2ccccc2)C1c1cccc([N+](=O)[O-])c1` (stereo not given) [Nicardipine HCl], the relative cell viability worked out at 0.979 ± 0.011.

With `CN(C)c1cccc(-c2c3c(=O)n(-c4ccccc4Cl)[nH]c3cc(=O)n2C)c1`, the relative cell viability worked out at 1.18 ± 0.065.

As for `OC[C@H]1O[C@@H](c2ccc(Cl)c(Cc3ccc(O[C@H]4CCOC4)cc3)c2)[C@H](O)[C@@H](O)[C@@H]1O`, the relative cell viability turned out to be 1.02 ± 0.021.

Turning to `Cn1cc(-c2[nH]c3cc(NC(=O)[C@H](N)C4CCCCC4)cc4c3c2C=NNC4=O)cn1`, the relative cell viability worked out at 0.702 ± 0.016.

Consider `CC[C@@H]1/C=C(\C)C[C@H](C)C[C@H](OC)[C@H]2O[C@@](O)(C(=O)C(=O)N3CCCC[C@H]3C(=O)O[C@H](/C(C)=C/[C@@H]3CC[C@@H](O)[C@H](OC)C3)[C@H](C)[C@@H](O)CC1=O)[C@H](C)C[C@@H]2OC` [Ascomycin (FK520)], for which the relative cell viability worked out at 1.36 ± 0.042.

For `CC1(C)CNc2cc(NC(=O)c3cccnc3NCc3ccncc3)ccc21` [Motesanib Diphosphate (AMG-706)], the relative cell viability amounted to 1.11 ± 0.049.

Consider `O=C1Cc2c([nH]c3ccc(Br)cc23)-c2ncccc2N1` [1-Azakenpaullone], for which the relative cell viability is 1.17 ± 0.11.

Consider `Oc1cc(O)c(Cl)cn1` [Gimeracil], for which the relative cell viability was determined as 1.15 ± 0.11.

As for `COC(=O)C1=C(C)NC(C)=C(C(=O)OCC(C)C)C1c1ccccc1[N+](=O)[O-]` (stereo not given) [Nisoldipine], the relative cell viability is 0.566 ± 0.051.

For the compound `Nc1ncnc2c1C(=O)N(c1ccc([C@H]3CC[C@H](CC(=O)O)CC3)cc1)CCO2`, the relative cell viability came to 1.09 ± 0.052.

For the compound `CCN1C(=CC(C)=O)Sc2ccc(OC)cc21`, the relative cell viability turned out to be 1.11 ± 0.11.

As for `O=C1[C@H](CC[C@H](O)c2ccc(F)cc2)[C@@H](c2ccc(O)cc2)N1c1ccc(F)cc1` [Ezetimibe], the relative cell viability is 0.9647 ± 0.0012.

Regarding `Cc1cnc(C(=O)NCCc2ccc(S(=O)(=O)NC(=O)NC3CCCCC3)cc2)cn1` [Glipizide], the relative cell viability was determined as 1.035 ± 0.0064.

For `Cc1cc(-c2ncc(CC(=O)Nc3ccc(-c4cnccn4)cn3)cc2C)ccn1`, the relative cell viability was 0.9822 ± 0.002.

Consider `COC(=O)CC(NC(=O)C(C)NC(=O)C(NC(=O)OCc1ccccc1)C(C)C)C(=O)CF` (stereo not given), for which the relative cell viability worked out at 1.3 ± 0.057.

As for `CN1CCC(NC(=O)c2cc(-c3c(O)cc(O)cc3Oc3ccc([N+](=O)[O-])cc3)on2)CC1`, the relative cell viability stood at 0.6427 ± 0.0019.

Turning to `CN1CCC(=C2c3ccccc3CCc3sccc32)CC1` [Pizotifen Malate], the relative cell viability came out at 1.07 ± 0.2.

For `COc1cc2ncnc(Oc3ccc(CC(=O)Nc4cnn(C(C)C)c4)cc3)c2cc1OC`, the relative cell viability came out at 1.17 ± 0.034.

Regarding `COc1ncc(-c2ccc3nccc(-c4ccnnc4)c3c2)cc1NS(=O)(=O)c1ccc(F)cc1F`, the relative cell viability came to 0.586 ± 0.032.

With `CCCCNc1ccc(C(=O)OCCN(C)C)cc1` [Tetracaine HCl], the relative cell viability was found to be 1.37 ± 0.12.

On to `CCCCC(=O)N(Cc1ccc(-c2ccccc2-c2nn[nH]n2)cc1)C(C(=O)O)C(C)C.CCOC(=O)C(C)CC(Cc1ccc(-c2ccccc2)cc1)NC(=O)CCC(=O)O` (stereo not given), for which the relative cell viability came out at 1.11 ± 0.11.

On to `COc1ccc2cc(-c3nc(-c4ccc([S+](C)[O-])cc4)[nH]c3-c3ccncc3)ccc2c1` (stereo not given) [Tie2 kinase inhibitor], for which the relative cell viability was 1.11 ± 0.035.

In the case of `CCCCCOC(=O)Nc1nc(=O)n([C@@H]2O[C@H](C)[C@@H](O)[C@H]2O)cc1F` [Capecitabine], the relative cell viability was determined as 1.35 ± 0.15.

For the compound `CCN(CC)CCOc1ccc(C(=C(Cl)c2ccccc2)c2ccccc2)cc1` [Clomifene citrate], the relative cell viability turned out to be 1.04 ± 0.036.

Take `O=c1c(O)c(-c2ccc(O)c(O)c2)oc2cc(O)cc(O)c12` [Quercetin Dihydrate]: the relative cell viability was found to be 0.846 ± 0.035.

Take `O=c1c(O)c(-c2ccc(O)c(O)c2)oc2cc(O)cc(O)c12` [Quercetin]: the relative cell viability turned out to be 0.973 ± 0.059.

For the compound `O=C(Nc1ccc([N+](=O)[O-])cc1O)Nc1ccccc1Br`, the relative cell viability is 0.845 ± 0.06.

Take `O=C(c1cncc(Br)c1)N1CCC(N2CCCC2)CC1`: the relative cell viability worked out at 1.1 ± 0.081.

Turning to `Cc1cnc(C(=O)O)c[n+]1[O-]` [Acipimox], the relative cell viability came out at 1.07 ± 0.063.

In the case of `O=C(O)c1cc(I)ccc1NC(=O)[C@H](Cc1ccccc1)NCc1ccccc1`, the relative cell viability stood at 1.06 ± 0.07.

Regarding `COCCc1ccc(OCC(O)CNC(C)C)cc1` (stereo not given) [Metoprolol Tartrate], the relative cell viability turned out to be 1.18 ± 0.062.

As to `CCN1CCN(Cc2ccc(Nc3ncc(F)c(-c4cc(F)c5nc(C)n(C(C)C)c5c4)n3)nc2)CC1`, the relative cell viability turned out to be 0.888 ± 0.011.

In the case of `CC(C)Cc1ccc(C(C)C(=O)O)cc1` (stereo not given) [Ibuprofen], the relative cell viability turned out to be 1.15 ± 0.013.

Turning to `COc1ccc(CN2CCN(C(c3ccc(F)cc3)c3ccc(F)cc3)CC2)c(OC)c1OC` [Lomerizine HCl], the relative cell viability worked out at 0.824 ± 0.13.

Regarding `O=C(O)c1ccccc1` [Benzoic Acid], the relative cell viability turned out to be 1.1 ± 0.072.

For the compound `CC[C@@H]([C@H](C)O)n1ncn(-c2ccc(N3CCN(c4ccc(OC[C@@H]5CO[C@@](Cn6cncn6)(c6ccc(F)cc6F)C5)cc4)CC3)cc2)c1=O` [Posaconazole], the relative cell viability was 1.15 ± 0.27.

Turning to `COC(=O)[C@]12CCC(C)(C)C[C@H]1[C@H]1C(=O)C=C3[C@@]4(C)C=C(C#N)C(=O)C(C)(C)[C@@H]4CC[C@@]3(C)[C@]1(C)CC2` [Bardoxolone Methyl], the relative cell viability turned out to be 0.476 ± 0.031.

In the case of `NC1=N[C@@](c2cccc(-c3cncnc3)c2)(c2ccnc(C(F)F)c2)c2cccc(F)c21`, the relative cell viability was determined as 1.25 ± 0.079.

In the case of `CCCCC[C@H](O)/C=C/[C@H]1[C@H](O)CC(=O)[C@@H]1CCCCCCC(=O)O` [Alprostadil], the relative cell viability worked out at 1.06 ± 0.14.

Take `CC(C(=O)O)c1ccc(C(=O)c2cccs2)cc1` (stereo not given) [Suprofen]: the relative cell viability stood at 0.939 ± 0.055.

For `CN1CCN(c2nc(C3=C(c4c[nH]c5ccccc45)C(=O)NC3=O)c3ccccc3n2)CC1` [Sotrastaurin], the relative cell viability turned out to be 0.919 ± 0.045.

Regarding `COc1cc2ncnc(Nc3ccc(F)c(Cl)c3)c2cc1OCCCN1CCOCC1` [Gefitinib (ZD1839)], the relative cell viability was 1.21 ± 0.097.

On to `CCOc1ccc(NC(C)=O)cc1` [Phenacetin], for which the relative cell viability is 1.1 ± 0.083.

`CN1CCC[C@@H]1CCO[C@](C)(c1ccccc1)c1ccc(Cl)cc1` [Clemastine Fumarate]: the relative cell viability was 0.944 ± 0.13.

Turning to `CC(C)[C@H](N)C(=O)OCC(CO)OCn1cnc2c(=O)[nH]c(N)nc21` (stereo not given in full) [Valganciclovir HCl], the relative cell viability amounted to 1.17 ± 0.18.

`O=C(c1ccc(OCCCc2c[nH]cn2)cc1)C1CC1` [Ciproxifan]: the relative cell viability worked out at 1.13 ± 0.046.

Take `CC[N+](CC)(CC)CCOc1cccc(OCC[N+](CC)(CC)CC)c1OCC[N+](CC)(CC)CC` [Gallamine Triethiodide]: the relative cell viability stood at 1.09 ± 0.032.

On to `C=C(c1ccc(C(=O)O)cc1)c1cc2c(cc1C)C(C)(C)CCC2(C)C` [Bexarotene], for which the relative cell viability worked out at 1.03 ± 0.17.

Consider `CN(C)CCCCC(=O)Nc1ccc(NC(=S)NC(=O)c2ccc(C(C)(C)C)cc2)cc1` [Tenovin-6], for which the relative cell viability came out at 0.797 ± 0.064.

Turning to `Cn1cc(-c2ccc(S(=O)(=O)n3ccc(/C=C/C(=O)Nc4ccccc4N)c3)cc2)cn1`, the relative cell viability was 0.781 ± 0.023.

Take `CC/C(=C(\c1ccccc1)c1ccc(OCCN(C)C)cc1)c1ccccc1` [Tamoxifen Citrate]: the relative cell viability came to 0.918 ± 0.037.

Turning to `CCc1oc2ccccc2c1C(=O)c1cc(Br)c(O)c(Br)c1` [Benzbromarone], the relative cell viability amounted to 1.251 ± 0.0033.

With `Cc1ccccc1N=Nc1ccc(NC(=O)c2ccnn2C)c(C)c1`, the relative cell viability came to 1.16 ± 0.076.

For the compound `CN(CCOc1ccc(CC2SC(=O)NC2=O)cc1)c1ccccn1` (stereo not given) [Rosiglitazone HCl], the relative cell viability was found to be 1.06 ± 0.062.

On to `CN(CCOc1ccc(CC2SC(=O)NC2=O)cc1)c1ccccn1` (stereo not given) [Rosiglitazone], for which the relative cell viability came out at 1.04 ± 0.052.

Regarding `CN(CCOc1ccc(CC2SC(=O)NC2=O)cc1)c1ccccn1` (stereo not given) [Rosiglitazone maleate], the relative cell viability was 1.12 ± 0.081.

As to `CC(N)C12CC3CC(CC(C3)C1)C2` (stereo not given) [Rimantadine], the relative cell viability amounted to 1.04 ± 0.034.

Regarding `Fc1cc(-c2cccc3ncc(-c4cnn(C5CCNCC5)c4)nc23)cc(F)c1CN1CCOCC1`, the relative cell viability came out at 1.01 ± 0.19.

For `COc1ccc(C[C@@H]2c3cc(OC)c(OC)cc3CC[N@+]2(C)CCC(=O)OCCCCCOC(=O)CC[N@@+]2(C)CCc3cc(OC)c(OC)cc3[C@H]2Cc2ccc(OC)c(OC)c2)cc1OC` [Cisatracurium Besylate], the relative cell viability was found to be 1.05 ± 0.058.

For the compound `CCOC(=O)c1c(C)n(C)c2ccc(O)cc12` [Mecarbinate], the relative cell viability was 1.15 ± 0.042.

For the compound `Brc1c(NC2=NCCN2)ccc2nccnc12` [Brimonidine Tartrate], the relative cell viability is 1.06 ± 0.025.

Take `CN(C)CCOC(=O)COc1ccc(Cl)cc1` [Meclofenoxate (Centrophenoxine) HCl]: the relative cell viability turned out to be 1.143 ± 0.0069.

Turning to `N=C(N)N/N=C/c1c(Cl)cccc1Cl` [Guanabenz Acetate], the relative cell viability came to 1.11 ± 0.09.

With `Cc1ccc2c(Cl)cc(Cl)c(O)c2n1` [Chlorquinaldol], the relative cell viability is 0.605 ± 0.018.

Consider `NCc1c[nH]c(=S)n1[C@@H]1CCc2c(F)cc(F)cc2C1` [(R)-Nepicastat HCl], for which the relative cell viability came out at 1.121 ± 0.0038.
